Measured values published in paper PMC4336329 (PLoS ONE, 2015).
The whole screen tested about 310,000 compounds, of which about 14,000 (4.5%) showed an effect of 50% or more. Effects have a minus sign here. Some of the results follow.

target: human ether-à-go-go-related gene (hERG) potassium channel (human, UniProt Q12809); assay: primary screen, population patch clamp on CHO cells stably expressing hERG
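Also: peak tail current of the secondary pulse compared with the same well before compound.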

Sequence of human ether-à-go-go-related gene (hERG) potassium channel (Q12809 whole entry, looked up): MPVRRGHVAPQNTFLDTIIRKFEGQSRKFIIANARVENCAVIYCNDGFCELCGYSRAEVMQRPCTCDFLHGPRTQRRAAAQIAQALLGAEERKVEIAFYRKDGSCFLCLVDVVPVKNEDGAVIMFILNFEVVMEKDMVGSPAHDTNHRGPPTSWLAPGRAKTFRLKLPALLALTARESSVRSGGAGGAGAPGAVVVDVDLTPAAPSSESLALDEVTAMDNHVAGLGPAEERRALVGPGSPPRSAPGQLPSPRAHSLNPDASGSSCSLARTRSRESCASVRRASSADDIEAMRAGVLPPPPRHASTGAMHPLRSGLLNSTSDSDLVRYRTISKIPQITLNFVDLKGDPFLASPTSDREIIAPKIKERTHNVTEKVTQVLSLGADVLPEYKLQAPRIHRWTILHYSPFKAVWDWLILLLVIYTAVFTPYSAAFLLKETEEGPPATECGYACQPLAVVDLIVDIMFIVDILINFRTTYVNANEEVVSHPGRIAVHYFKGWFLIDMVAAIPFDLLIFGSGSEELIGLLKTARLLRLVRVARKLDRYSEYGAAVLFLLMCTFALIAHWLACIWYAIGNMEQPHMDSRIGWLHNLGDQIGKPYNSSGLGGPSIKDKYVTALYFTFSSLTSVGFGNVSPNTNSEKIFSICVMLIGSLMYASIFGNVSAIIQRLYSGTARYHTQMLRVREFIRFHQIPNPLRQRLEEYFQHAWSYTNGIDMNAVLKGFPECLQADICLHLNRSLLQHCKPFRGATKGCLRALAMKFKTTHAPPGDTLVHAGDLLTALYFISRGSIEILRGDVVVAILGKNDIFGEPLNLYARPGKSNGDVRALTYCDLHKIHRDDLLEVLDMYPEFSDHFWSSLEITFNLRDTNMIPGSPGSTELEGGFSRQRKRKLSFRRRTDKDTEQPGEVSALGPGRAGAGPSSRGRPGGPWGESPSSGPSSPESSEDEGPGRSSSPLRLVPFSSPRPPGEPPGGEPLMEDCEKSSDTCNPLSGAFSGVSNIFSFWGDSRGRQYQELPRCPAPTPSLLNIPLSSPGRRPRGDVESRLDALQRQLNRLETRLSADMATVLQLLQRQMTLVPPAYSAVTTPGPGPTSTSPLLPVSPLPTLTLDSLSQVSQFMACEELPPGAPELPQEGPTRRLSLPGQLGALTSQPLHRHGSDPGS

| SMILES | hERG current change (%, negative = inhibition) at 10uM |
| --- | --- |
| Nc1ccc(-c2nc3ccc(C(=O)O)cc3s2)cc1 | 29.8% |
| CC1CCN(C(=O)CSc2nc3c(c(=O)n2C)SC(C)C3)CC1 (stereo not shown) | 1.59% |
| COc1ccc(-c2cc3c(=O)n(CC(=O)NCc4ccccc4OC)ncn3n2)cc1 | -14.1% |
| Cc1cccc(OCc2nnc(SCC(=O)NC3CCCC3)n2C)c1 | -1.09% |
| O=C(COc1ccc(Cl)cc1)NCCCNC(=O)c1cnccn1 | -10.2% |
| CN(C(=O)C1CCOC1)c1nnc(C2CCOC2)s1 (stereo not shown) | 10.1% |
| Cc1cc(C)c2c(=O)[nH]n(C3CCOC(C)(C)C3)c2n1 (stereo not shown) | -3.86% |
| CC1CC(C)CN(S(=O)(=O)c2ccc(Cl)cc2)C1 (stereo not shown) | -0.276% |
| O=C(COC(=O)c1ccc(Cl)nc1)NCc1ccco1 | 22.6% |
| CC(C)(C)c1ccc(OCCC(=O)NNC(=O)c2ccccc2)cc1 | -9.12% |
| CCN(CC)C(=O)COc1ccc(/C=N/NC(=O)c2cc(-c3ccccc3OC)nc3ccccc23)cc1OC | -19.7% |
| O=C(C1CCCO1)N1CCN(C(c2ccccc2)c2ccccc2)CC1 (stereo not shown) | 0.514% |
| Cc1ccc(C(=O)NCC2(c3ccccc3)CCCC2)cc1 | -12% |
| O=C(Nc1ccccc1C(=O)NC1CCCCC1)c1ccco1 | 1.01% |
| CCOc1ccc(C2(C)CC(=O)N(C)C2=O)cc1 (stereo not shown) | 0.927% |
| Cc1cc(C(F)(F)F)n(-c2ccc(N)cc2)n1 | 2.86% |
| CCn1c(N2CCN(C(=O)Nc3ccc(F)cc3)CC2)nc2ccccc21 | -68.2% |
| COc1ccc(OC)c(NC(=O)c2cccc(NC(=O)c3ccccc3)c2)c1 | -16.8% |
| CC(O)[C@H]1CNC(=O)C(=O)N1CCc1cccc(F)c1 (stereo partly shown) | 21% |
| c1cncc(CNc2ncnc3sc4c(c23)CCCC4)c1 | -78% |

| SMILES | hERG current change (%, negative = inhibition) at 10uM |
| --- | --- |
| Cc1c(C(=O)N2CCOCC2)sc2nc(-c3ccccc3)cn12 | -11.2% |
| CC(C(=O)NCc1cccnc1)N1C(=O)c2ccccc2C1=O (stereo not shown) | 17.4% |
| O=c1oc(-c2ccccc2NS(=O)(=O)c2ccc(F)cc2)nc2ccccc12 | 17.1% |
| CN(C(=O)c1cccc(S(=O)(=O)N2CCOCC2)c1)c1c(N)n(Cc2ccccc2)c(=O)[nH]c1=O | 15.2% |
| CCn1nnnc1-c1ccc(OC)c(S(=O)(=O)Nc2ccc(C(=O)OC)cc2)c1 | 6.44% |
| CC(C)C(OC(=O)c1nsc(Cl)c1Cl)C(=O)NCc1ccc2c(c1)OCO2 (stereo not shown) | 12.5% |
| O=C(Nc1ccccc1Oc1ccccc1)C1CC1 | 12.2% |
| COc1ccc(C)cc1NC(=O)c1nn(-c2ccccc2)cc1OC | 15.5% |
| Cn1c(SCC(=O)OCC(=O)c2ccccc2)nnc1-c1cccs1 | -8.23% |
| COc1ccc(NC(=O)CNC(c2ccccc2)c2ccccc2)cc1.O=C(O)C(=O)O | 13.9% |
| Fc1ccc(-c2nnc3ccc(N4CCCC4)nn23)cc1 | 5.51% |
| CCCCn1c(NCc2ccccc2NS(=O)(=O)c2ccc(C)cc2)nc2ccccc21 | 6.11% |
| C/C(=N\NC(=O)CCc1ccccc1)C1C(=O)c2ccccc2C1=O | -4.21% |
| CC1CCCCC1NCC#CCOc1ccc(Cl)cc1.O=C(O)C(=O)O (stereo not shown) | -29.2% |
| COc1ccc(-c2cc(C(F)F)nc(-n3nc(C)cc3C)n2)cc1 | 11.7% |
| Cn1c(=O)[nH]c(=O)c2c1nc1n2CC(O)CN1c1ccccc1 (stereo not shown) | 17.2% |
| C/C(=N\N(Cc1ccccc1)c1ccccc1)c1ccncc1.O=P(O)(O)O | -24.7% |
| Cc1nc(C(C)NC(=O)c2cc(COc3ccc(F)c(F)c3)on2)cs1 (stereo not shown) | -11.2% |
| CCCCC(CC(O)COCC(C)C)C(=O)NNC(=S)Nc1ccccc1 (stereo not shown) | 9.42% |
| Cc1cc(SCC(=O)NC(=O)c2cccn2C)nc2ccccc12 | -24.4% |

| SMILES | hERG current change (%, negative = inhibition) at 10uM |
| --- | --- |
| CCc1ccc2nc(SCC(=O)N3CCCCC3)c(C#N)cc2c1 | -6.9% |
| Cc1cc(C)c(NC(=O)CSc2nnc(-c3ccco3)n2N)c(C)c1 | -14.9% |
| COc1cc(CNc2ccc(CNc3ncn[nH]3)cc2)ccc1OCc1ccccc1 | -2.36% |
| CCCCCn1c(SCCCC)nc2c1c(=O)[nH]c(=O)n2C | -3.74% |
| CC(C)(C)NS(=O)(=O)c1ccc2nc(NC(=O)c3ccc(N4C(=O)CCC4=O)cc3)sc2c1 | 13.8% |
| CCn1c(COc2ccccc2)nnc1SCC(=O)Nc1cc(OC)ccc1OC | -23.1% |
| O=C(COc1ccccc1)NC1=NCCS1 | -1.43% |
| O=C(COc1ccc([N+](=O)[O-])cc1)N(C1CCCCC1)C1CCS(=O)(=O)C1 (stereo not shown) | -37% |
| CC(C)c1nn2c(=O)cc(O)nc2s1 | -7.92% |
| CCOC(=O)CNC(=O)CSc1nnc(C)c(=O)[nH]1 | 14.5% |
| CC(=O)N1c2ccc(S(=O)(=O)N3CCCC3C(=O)Nc3cccc(F)c3)cc2CC1C (stereo not shown) | -32.8% |
| CC1(C)CC(NS(=O)(=O)c2ccc(F)cc2)CC(C)(C)N1 | -6.29% |
| COc1ccc(Cn2c(=O)oc3ccc(C)cc32)cc1OC | 7.13% |
| CCc1ccccc1NC(=O)Cn1nc(C(F)(F)F)c2c1CCC2 | 7.74% |
| CCOC(=O)c1cc(C(=O)OCC)c(=O)[nH]c1SCc1ccccc1 | 25.1% |
| Cc1cc(N2CCN(c3ccccc3F)CC2)nc2cc(O)ccc12.Cl | -1.98% |
| Cc1ccc(C(CNC(=O)C(=O)Nc2ccc3c(c2)OCCO3)N2CCN(C)CC2)cc1 (stereo not shown) | -55.5% |
| Cc1ccc([N+](=O)[O-])cc1N(CC(=O)N1CCCCC1)S(C)(=O)=O | 12.2% |
